From US11365205B2 (Aurigene Discovery Technologies Limited, priority 2018, dated 2022) come the findings set out here.

What is called pIC50 is the negative decadic logarithm of the IC50, by convention in mol/L.

pIC50: −log10 of the molar value.

For the experiment, the target named is PRMT5/MEP50 Complex (Homo sapiens (Human), UniProt O14744). Kind of experiment: PRMT5 inhibition based on TR-FRET assay. The experiment is classed as biochemical. As to conditions: 32 nM PRMT5:MEP50, 50 nM Histone-H4 peptide, 1 μM SAM. The source says: PRMT5 Inhibition Based on TR-FRET Assay:
Protein arginine methyltransferase 5 (PRMT5) is a type II arginine methyltransferase that catalyze mono- and symmetric demethylation on arginine residues of histone or non-histone proteins in presence of S-adenosylmethionine (AdoMet or SAM) a cofactor responsible for donating the methyl group. PRMT5 is reported to be overexpressed in several human cancers. To identify compounds that inhibit the PRMT5 and decrease its activity, a TR-FRET based assay has been established. Time-resolved fluorescence resonance energy transfer (TR-FRET) HTS assays are homogeneous proximity assays where the interaction of two dye-labeled binding partners is detected by the energy transfer between a donor and an acceptor dye and the subsequent light emission by the acceptor dye. PRMT5 catalyzes Histone H4 peptide which is biotin tagged to the Lysine amino acid at carboxyl end, in presence of S-adenosyl-1-methionine (SAM) to methylate the peptide. The antibody specific to mono methylated H4 peptide (H4R3) with Ig conjugate binds to the methylated peptide, indirectly binding to the Europium lanthanide. […]
The compound dilutions were prepared as 7.5% DMSO stock solutions in assay buffer. […] The plates were then read on Victor-3 with Excitation at 340 nm and Emissions collected at 615 and 665 nm in TR-FRET protocol. […]
A general note: TR-FRET usually uses a lanthanide donor and a delayed reading to cut background.

Chain of UniProt O14744 (O14744 whole entry): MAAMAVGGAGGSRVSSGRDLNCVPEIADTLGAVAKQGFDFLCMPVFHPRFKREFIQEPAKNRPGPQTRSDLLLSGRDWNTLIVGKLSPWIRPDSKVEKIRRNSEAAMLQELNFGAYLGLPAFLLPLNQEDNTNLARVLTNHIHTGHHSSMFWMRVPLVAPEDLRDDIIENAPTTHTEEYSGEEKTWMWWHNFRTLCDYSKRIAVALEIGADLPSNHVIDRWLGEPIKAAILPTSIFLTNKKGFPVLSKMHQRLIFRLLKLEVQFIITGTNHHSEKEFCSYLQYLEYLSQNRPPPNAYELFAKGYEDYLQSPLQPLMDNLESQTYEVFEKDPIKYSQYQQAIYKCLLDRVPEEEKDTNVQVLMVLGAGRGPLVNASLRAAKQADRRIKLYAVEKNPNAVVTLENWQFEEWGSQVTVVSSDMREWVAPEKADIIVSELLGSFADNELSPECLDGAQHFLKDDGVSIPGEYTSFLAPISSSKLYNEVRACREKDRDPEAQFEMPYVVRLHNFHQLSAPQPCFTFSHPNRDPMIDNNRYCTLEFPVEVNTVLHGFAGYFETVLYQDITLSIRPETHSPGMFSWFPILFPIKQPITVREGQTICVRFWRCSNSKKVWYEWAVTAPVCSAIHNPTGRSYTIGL
Chain of UniProt O14744 (Q9BQA1 whole entry partner): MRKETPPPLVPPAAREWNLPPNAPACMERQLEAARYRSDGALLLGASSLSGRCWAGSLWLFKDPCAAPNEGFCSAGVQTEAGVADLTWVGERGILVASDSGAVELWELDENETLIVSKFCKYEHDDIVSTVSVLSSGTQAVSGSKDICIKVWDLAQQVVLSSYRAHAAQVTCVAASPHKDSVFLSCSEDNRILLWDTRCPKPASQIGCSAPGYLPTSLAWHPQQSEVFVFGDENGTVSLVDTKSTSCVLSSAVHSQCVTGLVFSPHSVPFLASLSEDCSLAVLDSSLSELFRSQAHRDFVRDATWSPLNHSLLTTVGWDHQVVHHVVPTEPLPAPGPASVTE

For `Cc1ccc(CN2CC3(CCC3)N(CC(O)CN3CCc4ccccc4C3)C2=O)cn1` (centres unmarked) [Example 9, 5-(3-(3,4-dihydroisoquinolin-2(1H)-yl)-2-hydroxypropyl)-7-((6-methylpyridin-3-yl)methyl)-5,7-diazaspiro[3.4]octan-6-one], the pIC50 is 6.64.
With `CS(=O)(=O)c1ccc(CN2CCN(CC(O)CN3CCc4ccccc4C3)C2=O)cc1` (centres unmarked) [Example 11, 1-(3-(3,4-Dihydroisoquinolin-2(1H)-yl)-2-hydroxypropyl)-3-(4-(methyl-sulfonyl)benzyl)imidazolidin-2-one], the negative-log IC50 (pIC50) was 6.66.
